Test results taken from PubChem BioAssay AID1346428 (National Center for Advancing Translational Sciences (NCATS), 2018).
Hit rate of the full screen: of about 48,000 compounds, about 1,200 (2.5%) were called active. Not shown: some 2% with an inconclusive outcome.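 How the source made its calls: active means activation of at least 60% and not above a set upper limit (about 1 call in 100 departs from these limits); inconclusive means activation of 40% to 60%, or above that upper limit; inactive means activation under 40%.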 This is one part of the list.

Each compound was assayed against Probable G-protein coupled receptor 32 (Homo sapiens) (UniProt O75388) (assay: qHTS for Agonists of Human Resolvin D1 Receptor DRV1). Conditions: CHO-K1 GPR32 beta-arrestin PathHunter luminescence, 90 min; at 76.9 µM; stronger effect = higher value; zero percent set by DMSO-only wells.
Summary of the method: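 Agonism was scored by beta-Gal fragment complementation (chemiluminescent read, 1 h detection at ambient temperature) reporting beta-arrestin binding to GPR32 in engineered CHO-K1 cells. Compound treatment lasted 90 min at 37 C, normalized to a DMSO basal control.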
Further: 0% is about no effect.

Sequence of UniProt O75388 (O75388 whole entry, looked up, the tested form may be a part): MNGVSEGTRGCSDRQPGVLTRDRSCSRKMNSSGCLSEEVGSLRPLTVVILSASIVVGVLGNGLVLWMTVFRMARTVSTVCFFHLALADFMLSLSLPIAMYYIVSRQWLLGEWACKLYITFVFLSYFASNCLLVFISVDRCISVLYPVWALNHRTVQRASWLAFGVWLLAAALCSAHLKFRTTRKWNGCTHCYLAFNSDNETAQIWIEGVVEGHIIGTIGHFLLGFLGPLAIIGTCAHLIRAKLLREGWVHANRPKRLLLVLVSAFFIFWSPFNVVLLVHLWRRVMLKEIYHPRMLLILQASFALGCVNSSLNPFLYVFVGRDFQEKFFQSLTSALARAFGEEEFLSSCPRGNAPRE

Structure (SMILES) | activation
Cc1cc(C)cc(C(=O)Nc2cccc(-c3nc4ncccc4o3)c2C)c1 | inactive: -4.56%
COc1ccccc1CNC(=O)CCCCn1c(=O)c2ccccc2n(Cc2ccccc2C)c1=O | inactive: -7.22%
CC(C)(C)C1CCc2c(sc(NC(=O)c3ccccc3F)c2C(=O)NCc2ccco2)C1 (configuration not stated) | inactive: 11.2%
COc1ccc(C2=NS(=O)(=O)N(C)C(C(=O)Nc3ccc(OC(F)(F)F)cc3)=C2)cc1 | inactive: -21.5%
c1ccc(N2CCN(Cc3nnc(-c4ccc5c(c4)OCO5)o3)CC2)cc1 | inactive: 0.0837%
CCOC(=O)c1cc2c(=O)n3ccccc3nc2n(CCOC)c1=NC(=O)c1cc2ccccc2o1 | inactive: -14.8%
Cc1nn(-c2ccc(N3CCCC3)nn2)c(C)c1CCC(=O)NCc1ccccc1 | inactive: -10.7%
CN(Cc1ccccc1)S(=O)(=O)c1nnc(NC(=O)c2ccccc2Cl)s1 | inactive: 16%
Cc1cccc(N2CCN(C(=O)c3cnc4c(C)cccn4c3=O)CC2C)c1 (configuration not stated) | inactive: 27.8%
O=C(NCc1ccccc1Cl)C1CCCN(C(=O)c2cnn(-c3ccc(F)cc3)c2-n2cccc2)C1 (configuration not stated) | inactive: 43.6%
CCOc1ccc(NC(=O)CSc2nc3c([nH]c4ccccc43)c(=O)n2-c2cc(C)cc(C)c2)cc1 | inactive: 3.51%
O=C(COc1cccc(Cl)c1)N1CCC(c2nc3ccccc3o2)CC1 | inactive: 0.0308%
CC(C)c1ccc(NC(=O)N2CCN(c3ccc(Cl)c(Cl)c3)CC2)cc1 | inactive: -14.1%
Cc1nc2c(-c3ccccc3)c(C)nn2c(C)c1CCC(=O)NCCc1ccccc1 | inactive: 7.22%
O=C(NC1CC(=O)N(c2ccc(Cl)cc2)C1)C1CCCC1 (configuration not stated) | inactive: -7.81%
Cc1ccc(N2CCN(C(=O)c3c(C)oc4ncnc(N5CCCCC5)c34)CC2)c(C)c1 | inactive: 9.13%
CCOC(=O)c1c(C)oc2c1cc(NS(=O)(=O)c1ccc(C)cc1)c1ccccc12 | inactive: 21.5%
NCCc1ccn[nH]1 | inactive: -14.6%
CCC(C)NC(=O)c1ccc2c(c1)nc1n2CCCCC1 (configuration not stated) | inactive: -13%
COc1ccc(NC(=O)CSc2nc3c(oc4ccccc43)c(=O)n2-c2ccccc2)cc1OC | inactive: -36.1%
CC(C)(C)OC(=O)N1CCC(c2c(C(=O)NCc3ccccc3)cnn2-c2ccc(F)cc2)CC1 | inactive: -9.56%

Structure (SMILES) | activation
CCC(=O)N1c2ccccc2C(C)(c2ccccc2)CC1(C)C (configuration not stated) | inactive: -6.46%
CN1CCN(C(=O)c2ccc3c(c2)N(Cc2ccc(F)cc2)C(=O)c2ccccc2S3=O)CC1 (configuration not stated) | inactive: -22.3%
CCOc1ccccc1NC(=O)c1cc(S(=O)(=O)N2CCOCC2)cn1C | inactive: -13.1%
O=C1Nc2cc(Cl)ccc2Oc2ccccc21 | inactive: 2.64%
O=C(CSc1nc(-c2ccccc2)no1)N1CCN(c2ccccc2)CC1 | inactive: -1.55%
Cc1ccc(NC(=O)c2cc(S(=O)(=O)N3CCCCCC3)ccc2F)cc1F | inactive: 29.1%
CCN1CCc2c(sc(-n3cccc3)c2C(C)NC(=O)Nc2cc(Cl)c(OC)cc2OC)C1 (configuration not stated) | inactive: -18.1%
CC1(C)CC(=O)c2cc(-c3nc(-c4ccc(Cl)cc4)cs3)c(=O)[nH]c2C1 | inactive: 4.66%
Cc1sc2c(c1C)c(=O)n(Cc1ccccc1)c(=O)n2CC(=O)N(C)c1ccccc1 | inactive: 12.1%
CCCNC(=O)c1cnn2c(C(F)F)cc(-c3ccccc3)nc12 | inactive: -1.34%
COc1ccc(CCNc2oc(COc3cccc(C)c3)nc2C#N)cc1OC | active: 111%
COc1ccc(S(=O)(=O)NCc2ccc3c(c2)CCN3C(C)=O)cc1OC | inactive: 7.71%
CCOc1ccc(CN2C(=O)c3ccccc3Sc3ccc(C(=O)NCCCN4CCOCC4)cc32)cc1 | inactive: -2.53%
Cc1ccc(NC(=O)CCS(=O)(=O)c2ccc3nc(C)sc3c2)c(C)c1 | inactive: -13.1%
Nc1ncnc2c1ncn2[C@@H]1O[C@H](COP(=O)(O)O)[C@@H](O)[C@H]1O | inactive: 4.87%
O=C(Nc1ccc(Cl)c(Cl)c1)N(Cc1c[nH]c2ccccc12)C1CCCCC1 | inactive: -4.92%
CCOc1ccc(S(=O)(=O)N(CC(=O)NCCc2ccc(OC)cc2)c2ccccc2)cc1 | inactive: -2.25%
COc1ccccc1N1CCN(c2c(CN3CCCC3)c(=O)oc3ccccc23)CC1 | inactive: -12.2%
CN(C)c1ncc(C(=O)NCc2ccccc2Cl)cn1 | inactive: 14.3%
COC(=O)c1ccc([C@H]2Nc3ccc(S(=O)(=O)Nc4ccc(F)cc4)cc3[C@H]3C=CC[C@H]32)cc1 | inactive: -17.5%
Cc1ccc(OCC(=O)N(Cc2nc(-c3ccccc3)no2)C(C)C)cc1C | inactive: -12.1%

Structure (SMILES) | activation
Cc1ccc(S(=O)(=O)N2CCCc3cc(NS(=O)(=O)c4ccccc4)ccc32)cc1 | inactive: -12.5%
CCOc1ccc(C(=O)Nc2ccc(NC(=O)c3ccccc3)cc2)cc1Br | inactive: -2.48%
CCOC(=O)c1ccc(N2CCN(c3ccc(F)cc3)CC2)c(NC(=O)Nc2ccc(CC)cc2)c1 | inactive: -3.16%
Cc1ccc2[nH]c(=O)c3cc(C(=O)NCc4cccc(Cl)c4)sc3c2c1 | inactive: -11.5%
Cc1cc(OCC(=O)Nc2sc3c(c2C#N)CCC(C)C3)ccc1Cl (configuration not stated) | inactive: 17.4%
C[N+]12CCC(CC1)C(OC(=O)C(O)(c1ccccc1)c1ccccc1)C2 (configuration not stated) | inactive: 1.52%
CCOC(=O)CNC(=O)Nc1cc(C(=O)NCc2ccc(C(C)C)cc2)ccc1N1CCCC1 | inactive: -27%
COc1ccccc1-c1noc(CSc2nnc(-c3ccccc3)n2-c2ccc(C)c(C)c2)n1 | inactive: -23.3%
Cc1cc(C)c(/C=C/c2onc(C)c2S(=O)(=O)N2CCC(C(=O)Nc3cccc(C)c3C)CC2)c(C)c1 | inactive: -5.36%
CCOC(=O)c1c(C)oc2nc(C)nc(N(C)Cc3ccccc3)c12 | inactive: -22%
CC(=O)c1ccc(NC(=O)CSc2nc(-c3ccccc3C)nc3c2c(=O)n(C)c(=O)n3C)cc1 | inactive: -16.5%
O=C(C1CCCN(S(=O)(=O)c2cccc3nonc23)C1)N1CCN(c2cccc(C(F)(F)F)c2)CC1 (configuration not stated) | inactive: 21.9%
CCOc1ccc(C(=O)c2cn(Cc3cccc(OC)c3)c3cc4c(cc3c2=O)OCO4)cc1 | inactive: -2.67%
Cc1ccc(S(=O)(=O)N2CCCC2C(=O)Nc2ccc(Br)cc2)cc1 (configuration not stated) | inactive: 9.86%
O=C(CSc1ncc(-c2ccc(Cl)cc2)[nH]1)Nc1ccccc1F | inactive: -21.9%
COc1cccc(-c2ccc3c(N)c(C(=O)c4ccc(F)cc4)sc3n2)c1 | inactive: -5.11%
COc1ccc(CNc2ncnc3c2cnn3-c2ccc(Cl)cc2)cc1 | inactive: 5.38%
CCOC(=O)c1c(C)oc2nc(C)nc(NCC3CCN(Cc4ccc(F)cc4)CC3)c12 | inactive: -7.08%
COc1ccc(Nc2ccc3cc(S(=O)(=O)N4CCCC4)ccc3n2)cc1OC | inactive: -26%
Cc1ccc(CSC2=Nc3ccccc3C3=NC(CCC(=O)NCc4cccs4)C(=O)N23)c(C)c1 (configuration not stated) | inactive: -8.12%
O=C(Nc1ccc(Cl)c(-c2nc3ccccc3o2)c1)c1cccc2c(Cl)cccc12 | inactive: -7.02%

Structure (SMILES) | activation
Cc1cc(N2CCN(C)CC2)nc2ccc(NC(=O)Nc3ccc(F)cc3F)cc12 | inactive: -2.61%
CCOC(=O)c1ccc(N2CCN(c3cc(Cl)ccc3C)CC2)c(NC(=O)Nc2ccc(OCC)cc2)c1 | inactive: -11.1%
CCC(Oc1ccccc1)C(=O)N1CCN(Cc2cc(=O)n3nc(-c4cccc(C)c4)sc3n2)CC1 (configuration not stated) | active: 60.7%
Fc1ccc(-c2nc3c4c(-c5ccccc5)c(-c5ccccc5)oc4ncn3n2)cc1 | inactive: -5.8%
CCC(=O)O[C@H]1[C@H](O[C@@H]2[C@@H](C)[C@H](O[C@H]3C[C@@](C)(OC)[C@@H](O)[C@H](C)O3)[C@@H](C)C(=O)O[C@H](CC)[C@@](C)(O)[C@H](O)[C@@H](C)C(=O)[C@H](C)C[C@@]2(C)O)O[C@H](C)C[C@@H]1N(C)C | inactive: -12.9%
COc1cc(Cl)c(NC(=O)CC(C)S(=O)(=O)c2cc3c(cc2C)NC(=O)CO3)c(OC)c1 (configuration not stated) | inactive: 20.8%
Cc1ccc(Cl)c(OCC(O)CNC(C)(C)C)c1 (configuration not stated) | inactive: 18.3%
Cc1ccc(-n2c(=O)c3c(c4cc(C)ccc4n3C)n(CC(=O)NCC3CCCO3)c2=O)cc1 (configuration not stated) | inactive: 12.7%
Cc1ccc(NS(=O)(=O)c2c(C)nc3sccn3c2=O)c(Cl)c1 | inactive: 2.96%
Cc1ccc(NC(=O)CSc2nncn3c2cc2sccc23)cc1F | inactive: -15.7%
Cc1nn(-c2ccc(N3CCCC3)nn2)c(C)c1CCC(=O)Nc1ccccc1 | inactive: -11.8%
CCCCOC(=O)c1ccc(NC2=NS(=O)(=O)c3ccccc32)cc1 | inactive: -4.57%
Cc1cccc(NC(=O)CCn2nc(C)c3c(C)n(-c4ccccc4)nc3c2=O)c1C | inactive: -2.7%
CC(C)c1ccc(NC(=O)c2cc(S(=O)(=O)N3CCc4ccccc4C3)ccc2F)cc1 | inactive: -1.66%
Cc1ccc(-c2nc3n(n2)C(=O)CC(c2ccc(C)cc2)S3)cc1 (configuration not stated) | inactive: -8.99%
COc1ccc(/C=C(\C#N)c2nc3ccccc3c(=O)[nH]2)cc1OC | inactive: -12.3%
COc1ccccc1CNC(=O)COCc1cc(-c2ccc3c(c2)OCO3)on1 | inactive: -10.2%
CCOc1ccc(S(=O)(=O)Nc2ccc3oc4c(c3c2)CC(C)CC4)cc1 (configuration not stated) | inactive: 36.5%
COc1cccc(CNS(=O)(=O)c2c(C(=O)N3CCC(C)CC3)c(C)n(C)c2C)c1 | inactive: -20.1%
